Experimental data as given in PubChem BioAssay AID296 (DTP/NCI, 2004).
Inconclusive results are not listed. For part of its entries the source gives two or more results. This list holds those alone. There may be further records. Results that share an entry repeat one measurement (runs, samples, wells, individuals or studies). Brackets with × say how often a value occurs here.

Test system: MX-1 breast xenograft, nude mice, tumor weight T/C
Experiment: NCI In Vivo Anticancer Drug Screen. Data for tumor model Human Mammary Carcinoma MX-1 Xenograft (intrarenal inoculation) in NU/NU Swiss (nude) mice
Conditions: endpoint: mean tumor weight change, higher = larger tumour
Outline: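 Compound dosed to mice with transplantable tumor; vehicle group as control. Endpoint survival or tumour size, reported as T/C.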

[1] = dose: 2.0 mg/kg/injection, schedule: Q01DX010 (sc), vehicle: water
[2] = dose: 75.0 mg/kg/injection, schedule: Q04DX003 (sc), vehicle: saline
[3] = dose: 50.0 mg/kg/injection, schedule: Q01DX010 (sc), vehicle: suspension in saline

Compound: CC[C@@]1(O)C[C@H](OC2CC(N(C)C)C(OC3CC(O)C(OC4CCC(=O)C(C)O4)C(C)O3)C(C)O2)c2c(cc3c(c2O)C(=O)c2c(O)cccc2C3=O)[C@H]1C(=O)OC (some centres not stated)
- T/C (dose: 1.0 mg/kg/injection, schedule: Q01DX010 (ip), vehicle: water): 34 % of control and 61 % of control
- T/C [1]: 62 % of control and 121 % of control

Compound: COC1OC(CO)C(O)C(NC(=O)N(C)N=O)C1O (configuration not stated)
- T/C (dose: 450.0 mg/kg/injection, schedule: Q04DX003 (sc), vehicle: saline): 31 % of control, 76 % of control, 86 % of control

Compound: CCCCCCCCCCCCCCCC(=O)Nc1ccn(C2OC(CO)C(O)C2O)c(=O)n1 (configuration not stated)
- T/C (dose: 150.0 mg/kg/injection, schedule: Q04DX003 (sc), vehicle: water): 5 % of control and 92 % of control
- T/C (dose: 300.0 mg/kg/injection, schedule: Q04DX003 (sc), vehicle: water): 1 % of control, 8 % of control, 85 % of control
- T/C (dose: 600.0 mg/kg/injection, schedule: Q04DX003 (sc), vehicle: water): 1 % of control and 68 % of control

Compound: COc1cc2cc3cc4cc(OC)c(OC)cc4c(C)[n+]3cc2cc1OC (tested in a mixture with another compound)
- T/C (dose: 300.0 mg/kg/injection, schedule: Q04DX003 (sc), vehicle: suspension in saline): 69 % of control and 119 % of control
- T/C (dose: 600.0 mg/kg/injection, schedule: Q04DX003 (sc), vehicle: suspension in saline): 76 % of control and 110 % of control

Compound: CC12CCC3C(CCC4CC(OC(=O)Cc5ccc(N(CCCl)CCCl)cc5)CCC43C)C1CCC(=O)N2 (configuration not stated)
- T/C (dose: 50.0 mg/kg/injection, schedule: Q04DX003 (sc), vehicle: saline with Tween-80): -98 % of control, -85 % of control, -18 % of control
- T/C (dose: 100.0 mg/kg/injection, schedule: Q04DX003 (sc), vehicle: saline with Tween-80): -100 % of control, -96 % of control, -13 % of control
- T/C (dose: 200.0 mg/kg/injection, schedule: Q04DX003 (sc), vehicle: saline with Tween-80): -100 % of control and -55 % of control

Compound: CC1CN1P1(N2CC2C)=NP(N2CC2C)(N2CC2C)=NP(N2CC2C)(N2CC2C)=N1 (configuration not stated)
- T/C [2]: 27 % of control and 60 % of control

Compound: COC12[C@@H]3N[C@@H]3CN1C1=C(C(=O)C(NCCSSCCNC3=C(C)C(=O)C4=C(C3=O)C(COC(N)=O)[C@]3(OC)C5N[C@@H]5CN43)=C(C)C1=O)[C@@H]2COC(N)=O (some centres not stated)
- T/C (dose: 6.25 mg/kg/injection, schedule: Q04DX003 (ip), vehicle: DMSO): -100 % of control and 18 % of control

Compound: Nc1nc([Se])c2ncn(C3OC(CO)C(O)C3O)c2n1 (configuration not stated)
- T/C (dose: 4.0 mg/kg/injection, schedule: Q01DX010 (sc), vehicle: saline): 105 % of control, 113 % of control, 150 % of control
- T/C (dose: 8.0 mg/kg/injection, schedule: Q01DX010 (sc), vehicle: saline): 68 % of control, 160 % of control, 199 % of control
- T/C (dose: 13.33 mg/kg/injection, schedule: Q04DX003 (sc), vehicle: saline): 14 % of control and 104 % of control
- T/C (dose: 26.65 mg/kg/injection, schedule: Q04DX003 (sc), vehicle: saline): 8 % of control and 106 % of control

Compound: OC(CBr)C(O)C(O)C(O)CBr (configuration not stated)
- T/C (dose: 30.0 mg/kg/injection, schedule: Q01DX010 (sc), vehicle: Klucel (hydroxypropylcellulose) (HPC)): 3 % of control and 29 % of control
- T/C (dose: 200.0 mg/kg/injection, schedule: Q01DX010 (sc), vehicle: Klucel (hydroxypropylcellulose) (HPC)): 5 % of control and 50 % of control
- T/C (dose: 400.0 mg/kg/injection, schedule: Q01DX010 (sc), vehicle: Klucel (hydroxypropylcellulose) (HPC)): -73 % of control and 17 % of control

Compound: O=C(O)CSc1c(Cl)c(=O)oc2ccc(Cl)cc12
- T/C (dose: 600.0 mg/kg/injection, schedule: Q04DX003 (sc), vehicle: Klucel (hydroxypropylcellulose) (HPC)): 17 % of control, 29 % of control, 63 % of control

Compound: Cc1c(CNc2ccc(C(=O)NC(CC(=O)O)C(=O)O)cc2)ccc2nc(N)nc(N)c12 (configuration not stated)
- T/C (dose: 12.0 mg/kg/injection, schedule: Q04DX003 (sc), vehicle: saline with Tween-80): 24 % of control and 54 % of control
- T/C (dose: 24.0 mg/kg/injection, schedule: Q04DX003 (sc), vehicle: saline with Tween-80): 14 % of control, 34 % of control, 45 % of control

Compound: Nc1ccn([C@@H](C=O)O[C@@H](C=O)CO)c(=O)n1
- T/C [3]: 75 % of control and 173 % of control
- T/C (dose: 100.0 mg/kg/injection, schedule: Q01DX010 (sc), vehicle: suspension in saline): 29 % of control, 46 % of control, 55 % of control
- T/C (dose: 200.0 mg/kg/injection, schedule: Q01DX010 (sc), vehicle: suspension in saline): 1 % of control, 7 % of control, 109 % of control

Compound: ClCCCN1CCCCC1CCl (configuration not stated)
- T/C (dose: 6.25 mg/kg/injection, schedule: Q04DX003 (sc), vehicle: saline): 114 % of control and 183 % of control

Compound: COc1cccc2c1C(=O)c1c(O)c3c(c(O)c1C2=O)CC(O)(/C(C)=N/NC(=O)CCCCC(=O)N/N=C(\C)C1(O)Cc2c(O)c4c(c(O)c2C(OC2CC(N)C(O)C(C)O2)C1)C(=O)c1c(OC)cccc1C4=O)CC3OC1CC(N)C(O)C(C)O1 (configuration not stated)
- T/C (dose: 12.5 mg/kg/injection, schedule: Q04DX003 (sc), vehicle: water): 50 % of control and 84 % of control
- T/C (dose: 25.0 mg/kg/injection, schedule: Q04DX003 (sc), vehicle: water): 9 % of control and 99 % of control

Compound: C=CCNc1ccc(C)cc1
- T/C (dose: 100.0 mg/kg/injection, schedule: Q01DX010 (sc), vehicle: Klucel (hydroxypropylcellulose) (HPC)): 77 % of control, 109 % of control, 110 % of control

Compound: O=c1[nH]cc(F)c(=O)[nH]1
- T/C (dose: 20.0 mg/kg/injection, schedule: Q01DX010 (sc), vehicle: saline): 26 % of control and 61 % of control
- T/C (dose: 25.0 mg/kg/injection, schedule: Q04DX003 (sc), vehicle: saline): 77 % of control, 108 % of control, 111 % of control

Compound: COc1cccc2c1C(=O)c1c(O)c3c(c(O)c1C2=O)C[C@@](O)(C(C)=O)C[C@@H]3OC1CC(N)C(O)C(C)O1 (some centres not stated)
- T/C (dose: 2.0 mg/kg/injection, schedule: Q01DX010 (sc), vehicle: saline): 93 % of control and 151 % of control

Compound: CN(CO)c1nc(N(C)CO)nc(N(C)CO)n1
- T/C [3]: -100 % of control and -35 % of control
- T/C [2]: -57 % of control, 4 % of control, 8 % of control
- T/C (dose: 75.0 mg/kg/injection, schedule: Q04DX003 (sc), vehicle: suspension in saline): -98 % of control, 1 % of control, 12 % of control
- T/C (dose: 150.0 mg/kg/injection, schedule: Q04DX003 (sc), vehicle: suspension in saline): -100 % of control (2×) and -69 % of control

Compound: COc1cccc2c1C(=N)c1c(O)c3c(c(O)c1C2=O)C[C@@](O)(C(C)=O)C[C@@H]3OC1CC(N)C(O)C(C)O1 (some centres not stated)
- T/C (dose: 8.0 mg/kg/injection, schedule: Q01DX010 (sc), vehicle: water): 14 % of control and 48 % of control

Compound: [N-]=[N+]=CC(=O)CCC(=O)C=[N+]=[N-]
- T/C (dose: 1.5 mg/kg/injection, schedule: Q01DX010 (sc), vehicle: DMSO): -100 % of control and -25 % of control

Compound: CCOC(OCC)C(=O)OCC(=O)[C@]1(O)Cc2c(O)c3c(c(O)c2[C@@H](OC2CC(N)C(O)C(C)O2)C1)C(=O)c1c(OC)cccc1C3=O (some centres not stated)
- T/C (dose: 1.0 mg/kg/injection, schedule: Q01DX010 (sc), vehicle: water): 48 % of control, 57 % of control, 118 % of control
- T/C [1]: 28 % of control and 60 % of control

Compound: Nc1ncn(C2OC(CO)C(O)C2O)c(=O)n1 (configuration not stated)
- T/C (dose: 5.0 mg/kg/injection, schedule: Q04DX003 (sc), vehicle: saline): 37 % of control and 84 % of control
- T/C (dose: 10.0 mg/kg/injection, schedule: Q04DX003 (sc), vehicle: saline): 22 % of control, 37 % of control, 53 % of control
- T/C (dose: 400.0 mg/kg/injection, schedule: Q04DX003 (sc), vehicle: suspension in saline): -96 % of control and 5 % of control
- T/C (dose: 800.0 mg/kg/injection, schedule: Q04DX003 (sc), vehicle: suspension in saline): -100 % of control and 2 % of control

Compound: CCOC(=O)C(CC(C)C)NC(=O)C(N)Cc1ccc(N(CCCl)CCCl)cc1 (configuration not stated)
- T/C (dose: 15.0 mg/kg/injection, schedule: Q04DX003 (sc), vehicle: water): -100 % of control, 2 % of control, 7 % of control
- T/C (dose: 30.0 mg/kg/injection, schedule: Q04DX003 (sc), vehicle: water): -100 % of control, -28 % of control, -6 % of control

Compound: OCCOCCN1CCN(CCCN2c3ccccc3Sc3ccc(C(F)(F)F)cc32)CC1
- T/C (dose: 6.0 mg/kg/injection, schedule: Q01DX010 (sc), vehicle: saline): 66 % of control and 107 % of control
- T/C (dose: 12.0 mg/kg/injection, schedule: Q01DX010 (sc), vehicle: saline): 19 % of control and 66 % of control

Compound: CNNCc1ccc(C(=O)NC(C)C)cc1
- T/C (dose: 200.0 mg/kg/injection, schedule: Q01DX010 (sc), vehicle: saline): 6 % of control and 49 % of control

Compound: CN1CCN(c2ccc3nc(-c4ccc5nc(-c6ccc(O)cc6)[nH]c5c4)[nH]c3c2)CC1
- T/C (dose: 500.0 mg/kg/injection, schedule: Q04DX003 (sc), vehicle: suspension in saline): 75 % of control and 171 % of control
- T/C (dose: 800.0 mg/kg/injection, schedule: Q04DX003 (sc), vehicle: saline): 14 % of control and 67 % of control
